The values that follow come from article PMC4336329 (PLoS ONE, 2015).

Each structure is given as a SMILES string. Among all 310,000 compounds or so, about 2,200 (0.71%) showed an effect of 50% or more. Effects have a minus sign here. The list shows a part of the results.

The test deals with human ether-à-go-go-related gene (hERG) potassium channel (human, UniProt Q12809). The test is described as follows: primary screen, population patch clamp on CHO cells stably expressing hERG.
human ether-à-go-go-related gene (hERG) potassium channel, sequence (Q12809 whole entry, looked up): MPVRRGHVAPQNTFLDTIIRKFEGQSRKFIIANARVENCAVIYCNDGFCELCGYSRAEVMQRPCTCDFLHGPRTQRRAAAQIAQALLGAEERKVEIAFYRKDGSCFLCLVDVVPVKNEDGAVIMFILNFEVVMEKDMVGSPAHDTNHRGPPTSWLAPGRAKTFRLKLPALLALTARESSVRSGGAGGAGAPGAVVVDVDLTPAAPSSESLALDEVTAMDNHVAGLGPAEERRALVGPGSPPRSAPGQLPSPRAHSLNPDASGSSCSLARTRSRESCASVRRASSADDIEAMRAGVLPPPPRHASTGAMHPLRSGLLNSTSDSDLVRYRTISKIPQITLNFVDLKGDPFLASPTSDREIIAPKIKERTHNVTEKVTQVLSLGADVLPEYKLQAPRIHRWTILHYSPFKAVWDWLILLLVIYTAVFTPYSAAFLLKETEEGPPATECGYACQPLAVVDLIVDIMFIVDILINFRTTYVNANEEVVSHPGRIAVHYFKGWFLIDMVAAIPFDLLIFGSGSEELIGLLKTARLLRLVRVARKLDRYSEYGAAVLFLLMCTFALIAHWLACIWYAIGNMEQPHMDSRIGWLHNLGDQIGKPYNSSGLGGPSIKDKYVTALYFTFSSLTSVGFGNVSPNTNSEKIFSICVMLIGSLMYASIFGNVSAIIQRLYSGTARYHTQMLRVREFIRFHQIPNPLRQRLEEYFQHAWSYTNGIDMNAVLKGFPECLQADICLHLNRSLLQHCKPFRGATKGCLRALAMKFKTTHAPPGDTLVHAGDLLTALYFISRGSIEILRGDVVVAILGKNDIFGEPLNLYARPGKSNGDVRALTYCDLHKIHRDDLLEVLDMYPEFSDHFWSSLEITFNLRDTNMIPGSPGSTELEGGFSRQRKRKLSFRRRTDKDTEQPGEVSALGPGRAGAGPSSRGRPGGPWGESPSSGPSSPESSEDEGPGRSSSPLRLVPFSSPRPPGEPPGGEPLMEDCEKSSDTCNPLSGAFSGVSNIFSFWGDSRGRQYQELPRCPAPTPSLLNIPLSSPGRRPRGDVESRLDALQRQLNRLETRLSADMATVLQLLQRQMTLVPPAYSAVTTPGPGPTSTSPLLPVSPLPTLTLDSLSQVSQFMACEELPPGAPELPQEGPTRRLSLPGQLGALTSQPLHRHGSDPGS
For the compound `Cc1occc1-c1nc(-c2ccncc2)no1`, the “hERG current change (%, negative = inhibition) at 1uM” value came to 1.05%. For `COc1cccc(/C=N/Nc2ccnc(=O)[nH]2)c1O` the value was 11.2%. The value for `CN(C(=O)Cn1nnc(-c2cccc(C(F)(F)F)c2)n1)C1CCCCC1` was 11.4%; that for `O=C(Nc1ccccc1N1CCCC1)c1ccco1` was 14.1%; that for `O=C(CN1C(=O)CSC1=O)NC1CCCCC1` was -8.29%.

As for `Cc1ccccc1N(CC(=O)N/N=C/c1ccccc1Cl)C(=O)c1ccccc1`, the “hERG current change (%, negative = inhibition) at 1uM” value was 6.14%. For `O=C(c1cccc(Oc2ccccc2)c1)N1CCOCC1` the value was 6.28%; for `Cc1ccc(-c2ccc(=O)n(CC(=O)N3CCN(c4cc(Cl)ccc4C)CC3)n2)cc1`, -7.47%. The value for `COc1ccc(N(C)C(=O)C2CCN(S(=O)(=O)c3cccc4nonc34)CC2)cc1` was 5.89%. The value for `CCOC(=O)c1nn(-c2cccc(Cl)c2)c2nc(Nc3ccccc3)cc(=O)n12` was 14.4%; that for `O=C(c1ccc2c(c1)ncn2-c1ccc(F)cc1F)N1CCC2(CC1)OCCO2` was -1.88%. `COCCNC(=O)c1ccc(C(=O)NCCOC)s1`: the “hERG current change (%, negative = inhibition) at 1uM” value is listed as 16.6%.

For `C/C=C/C=[N+](\[O-])C(C)/C(=N/O)c1ccc(F)cc1` (stereo not drawn), the “hERG current change (%, negative = inhibition) at 1uM” value was -16.3%. The value for `O=C(O)CSc1nnc(-c2ccc3c(c2)OCO3)o1` was -5.58%.

As for `COc1cccc(NC(=O)C2CCN(C(=O)NC3CCCCC3)CC2)c1`, the “hERG current change (%, negative = inhibition) at 1uM” value is listed as 12.4%. As to `COc1ccc(NC(=S)N(CCC(C)C)C2CCN(C(C)C)CC2)cc1`, the “hERG current change (%, negative = inhibition) at 1uM” value was found to be 9.32%. For `O=C(c1cccc2nc3ccccc3nc12)N1CCOCC1` the value was 11.6%. For `Cc1ccc(S(=O)(=O)N2C3C=CC(C3)C2C(=O)O)cc1` (stereo not drawn) the value was 12.6%; for `CC(=O)CCc1ccc(OCCCCn2cncn2)cc1`, 3.73%; for `CCCn1c(C(C)Nc2nc(-c3cccc(Br)c3)cs2)nc2ccccc21` (stereo not drawn), 1.41%. For `O=C(Nc1nccs1)C1CC(=O)N(c2ccc(Cl)cc2)C1` (stereo not drawn) the value was 3.23%. As for `COC(=O)c1ccccc1NC(=O)C1CCCN(S(=O)(=O)c2ccc(F)cc2)C1` (stereo not drawn), the “hERG current change (%, negative = inhibition) at 1uM” value is recorded as 13.2%. The value for `CCC1Sc2ccc(S(=O)(=O)CCC(=O)NC3CCCCCC3)cc2NC1=O` (stereo not drawn) was 9.99%. The value for `O=C(Nc1nc2ccccc2s1)C1=NN(c2ccccc2)C(=O)CC1` was 17.1%; that for `Oc1ccccc1CNc1ccc2c(c1)OCCO2` was 9.76%.

On to `CC1(C)CC(=O)c2cc(C(=O)Nn3cnnc3)c(=O)n(-c3ccccc3)c2C1`, for which the “hERG current change (%, negative = inhibition) at 1uM” value turned out to be 0.727%. Turning to `O=C(N/N=C/c1cn(-c2ccccc2)nc1-c1cccs1)c1ccc(Cl)cc1`, the “hERG current change (%, negative = inhibition) at 1uM” value stood at 13.9%. The value for `CC(=O)Nc1ccc(C(=O)NC2CCSc3ccccc32)cc1` (stereo not drawn) was -1.13%; that for `COc1cccc(CC2(CO)CCCN(Cc3nc(-c4cccs4)oc3C)C2)c1` (stereo not drawn) was -31.5%; that for `CSCCC(NC(=O)/C(=C/c1ccc(F)cc1)NC(C)=O)C(=O)O` (stereo not drawn) was 22.3%. The value for `Cc1ccc(C(=O)c2nccn2C)cc1C` was 16.2%. For `O=C(Nc1cc(S(=O)(=O)N2CCOCC2)ccc1Oc1ccc(F)cc1)C1=COCCO1` the value was -13.6%; for `O=C([O-])c1cc(-c2ccco2)nc2ccc(Br)cc12.[K+]`, 6.61%; for `CS(=O)(=O)N(CC(=O)N1CCc2ccccc2C1)Cc1ccccc1`, -1.71%.

With `Cc1ccc(C)c(NC(=O)CN(C)C(=O)Cn2c(=O)oc3ccccc32)c1`, the “hERG current change (%, negative = inhibition) at 1uM” value is 11.6%. For `CCOc1ccc(/C=N/n2cnnc2)cc1` the value was 12.3%.

With `CCCc1c(C(=O)O)cnn1-c1ccc(Cl)cc1`, the “hERG current change (%, negative = inhibition) at 1uM” value is listed as 17.3%. The value for `COc1ccc(Br)cc1/C=C/C(=O)c1ccc(NC(C)=O)cc1` was 12.4%. The value for `COc1ccc(NC(=O)c2ccc3c(c2)OCCO3)cc1OC` was 14.2%; that for `O=C(CCCCCn1c(=O)[nH]c2ccccc2c1=O)N1CCN(Cc2ccc3c(c2)OCO3)CC1` was -25.9%; that for `CCN(CC)CC(=O)NC12CC3CC(CC(C3)C1)C2.Cl` was 4.95%. The value for `FC(F)(F)c1cccc(-c2nc(COc3ccc(Cl)cc3Cl)no2)c1` was 15%; that for `CCN(CC)C(=O)c1[nH]cnc1C(=O)N[C@H](C)c1ccccc1` was 14.9%.

With `CC1CN(C2CCN(S(=O)(=O)c3ccc(F)cc3)CC2)CC(C)O1.O=C(O)C(=O)O` (stereo not drawn), the “hERG current change (%, negative = inhibition) at 1uM” value is on record as -5.14%. `C=CCN(CC=C)S(=O)(=O)c1ccc(NC(=S)NC(=O)C2CC2)cc1`: the “hERG current change (%, negative = inhibition) at 1uM” value was 8.03%.
